# This is one part of the list.
# Key:
# HSkMC = human skeletal muscle cells; assay: cytotoxicity call (relative viability < 0.9); conditions: 10 µM
# S. aureus RN4220 = assay: growth inhibition call (relative growth <= 0.2); conditions: 50 µM
SMILES,cytotoxicity call (HSkMC),growth inhibition call (S. aureus RN4220)
C[C@@H]1CN([C@H](C)CO)C(=O)Cc2cc(NC(=O)C3CC3)ccc2O[C@H]1CN(C)Cc1ccc(C(=O)O)cc1,inactive,inactive
COCC#Cc1ccc2c(c1)O[C@H](CN(C)Cc1ccc(F)cc1)[C@H](C)CN([C@@H](C)CO)S2(=O)=O,inactive,inactive
COc1ccc([Si](C)(C)[C@H]2[C@H](CC(=O)N(CCO)Cc3ccccc3)O[C@@]3(C(=O)N(Cc4cccc(N5CCOC5=O)c4)c4ccccc43)[C@@H]2C)cc1,inactive,inactive
C[C@H](CO)N1C[C@H](C)[C@@H](CN(C)Cc2ccc(C(F)(F)F)cc2)Oc2c(NS(=O)(=O)c3ccc(Cl)cc3)cccc2C1=O,inactive,inactive
Cc1ccc2c(N)[nH]nc2n1,inactive,inactive
CC1(C)C[C@@](CCN)(Cc2ccccc2)CCO1,inactive,inactive
CN(C)C(=O)COC[C@]12COC[C@H]1CN(S(C)(=O)=O)C2,inactive,inactive
COc1ccc(NC(=O)Nc2ccc3c(c2)C(=O)N([C@@H](C)CO)C[C@@H](C)[C@@H](CN(C)S(=O)(=O)c2ccc(F)cc2)OCCCC[C@@H](C)O3)cc1,inactive,inactive
O=C1CCC(=O)NCC/C=C/CCN1,inactive,inactive
O=C(O)CN1CCCCCC1=O,inactive,inactive
COc1ccc(NC(=O)Nc2ccc3c(c2)C(=O)N([C@@H](C)CO)C[C@@H](C)[C@H](CN(C)Cc2ccccc2)OCCCC[C@@H](C)O3)cc1,inactive,inactive
C[C@H](CO)N1C[C@H](C)[C@@H](CN(C)Cc2cccc3c2OCCCO3)OCc2cn(nn2)CCCC1=O,inactive,inactive
C[C@@H]1CN([C@H](C)CO)C(=O)Cc2cc(NC(=O)Nc3ccc(C(F)(F)F)cc3)ccc2O[C@@H]1CN(C)Cc1ccc(C(=O)O)cc1,inactive,inactive
C[C@@H]1CCCCO[C@H](CN(C)C(=O)Nc2ccc(F)cc2)[C@@H](C)CN([C@@H](C)CO)C(=O)c2cc(NC(=O)Nc3ccc(C(F)(F)F)cc3)ccc2O1,inactive,inactive
CCC(=O)OC1(C(=O)CCl)C(C)CC2C3CCC4=CC(=O)C=CC4(C)C3(F)C(O)CC21C (stereo unspecified),inactive,inactive
CNC[C@H]1OCCCC[C@H](C)Oc2ccc(NC(=O)c3ccncc3)cc2C(=O)N([C@H](C)CO)C[C@@H]1C,inactive,inactive
C[C@H]1CN([C@@H](C)CO)C(=O)Cc2cc(NC(=O)CCCCCC(=O)Nc3ccccc3N)ccc2O[C@H]1CN(C)Cc1ccc(Oc2ccccc2)cc1,inactive,inactive

SMILES,cytotoxicity call (HSkMC),growth inhibition call (S. aureus RN4220)
C[C@@H]1CN([C@@H](C)CO)S(=O)(=O)c2ccc(C#CCN(C)C)cc2O[C@H]1CN(C)C,inactive,inactive
C/C=C/c1ccc2c(c1)O[C@@H](CN(C)S(=O)(=O)c1ccccc1OC)[C@H](C)CN([C@@H](C)CO)S2(=O)=O,inactive,inactive
C[C@H]1CN([C@@H](C)CO)C(=O)c2cc(NC(=O)CCN3CCOCC3)ccc2O[C@@H]1CN(C)C(=O)NC1CCCCC1,inactive,inactive
COc1ccc(NC(=O)Nc2ccc3c(c2)C(=O)N([C@H](C)CO)C[C@H](C)[C@@H](CN(C)S(=O)(=O)c2ccc(OC)cc2)OCCCC[C@@H](C)O3)cc1,inactive,inactive
COc1ccc(NC(=O)Nc2ccc3c(c2)C(=O)N([C@@H](C)CO)C[C@H](C)[C@H](CN(C)C(=O)Nc2ccc(C(F)(F)F)cc2)OCCCC[C@H](C)O3)cc1,inactive,inactive
CCCCN(CCCC)CC[C@@H](O)c1cc2c(Cl)cc(Cl)cc2c2cc(C(F)(F)F)ccc12,inactive,inactive
O=C(N/N=C/[C@H](O)[C@@H](O)[C@@H](O)[C@H](O)CO)c1ccccn1,inactive,inactive
C[C@H]1CN([C@@H](C)CO)C(=O)c2cccc(NC(=O)NC3CCCCC3)c2O[C@@H]1CN(C)Cc1ccc(Oc2ccccc2)cc1,inactive,inactive
COc1ccc([C@@H](N)c2ccncc2)cc1,inactive,inactive
COc1cccc(S(=O)(=O)Nc2ccc3c(c2)[C@H]2C[C@@H](CC(=O)NCc4ccccc4F)O[C@H](CO)[C@H]2O3)c1,inactive,inactive
CC(C)NC(=O)N(C)C[C@@H]1Oc2cc(C#Cc3cccc(F)c3)ccc2S(=O)(=O)N([C@@H](C)CO)C[C@@H]1C,inactive,inactive
COc1cccc(C#Cc2ccc([C@@H]3[C@H]4CN(S(=O)(=O)c5ccccc5C)CC(=O)N4[C@H]3CO)cc2)c1,inactive,inactive
COCCNC(=O)C[C@H]1CC[C@@H](NS(=O)(=O)c2ccc(C)cc2)[C@@H](CO)O1,inactive,inactive
Cc1ccc(S(=O)(=O)N(C)C[C@@H]2OCCCC[C@H](C)Oc3ccc(NC(=O)Nc4cccc5ccccc45)cc3C(=O)N([C@H](C)CO)C[C@@H]2C)cc1,inactive,inactive
O=C(Oc1cc(O)cc2c1C[C@@H](OC(=O)c1cc(O)c(O)c(O)c1)[C@@H](c1cc(O)c(O)c(O)c1)O2)c1cc(O)c(O)c(O)c1,inactive,inactive
COc1ccc(NC(=O)Nc2cccc3c2O[C@@H](CN(C)Cc2ccc(-c4ccccc4)cc2)[C@H](C)CN([C@@H](C)CO)C3=O)cc1,inactive,inactive
